pIC50: −log10 of the molar value. IC50 is the fitted dose that halves viability relative to control wells, and lower means more sensitive; fits outside the tested doses are given as limits. The AUC spans the tested range (256-fold, ending at the top dose) of the same fit; values near 1 show little effect. For some assays here: A top dose marked as inferred is not printed in the source and was worked back from the curve model. For some assays here: Where an entry number is given, a second screen of the drug exists; the two often differ.
Tests used:
Assay in all cases: Viability of human cancer cell lines after 72 h of drug (GDSC screen)
CHIR-99021 = compound: Cc1cnc(-c2cnc(NCCNc3ccc(C#N)cn3)nc2-c2ccc(Cl)cc2Cl)[nH]1 [CHIR-99021]
Experimental: (§1)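 Human cancer cell lines in 384-well plates, medium with 10% serum, drug for 72 h over a 256-fold dose range (nine 2-fold or five 4-fold steps up to the top dose). Adherent lines were fixed and stained with the nucleic acid dye Syto60, suspension lines read with resazurin; signal relative to control wells, capped at 0 and 100%. One two-parameter sigmoid per drug and line, fitted in a mixed model over all curves with the slope shared within a line.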

ABT-888 = compound: C[C@]1(c2nc3c(C(N)=O)cccc3[nH]2)CCCN1 [ABT-888]; conditions: top dose 5 µM; top dose inferred
Experimental: as §1

MPS-1-IN-1 = compound: COc1cc(N2CCC(O)CC2)ccc1Nc1cc(Nc2ccccc2S(=O)(=O)C(C)C)c2cc[nH]c2n1 [MPS-1-IN-1]; conditions: top dose 20 µM; top dose inferred
Experimental: as §1

GSK269962A = compound: CCn1c(-c2nonc2N)nc2cnc(Oc3cccc(NC(=O)c4ccc(OCCN5CCOCC5)cc4)c3)cc21 [GSK269962A]; conditions: top dose 5 µM; screen: GDSC drug entry 1192; top dose inferred
Experimental: as §1

KU-55933 = compound: O=c1cc(-c2cccc3c2Sc2ccccc2S3)oc(N2CCOCC2)c1 [KU-55933]; conditions: top dose 10 µM
Experimental: as §1

CP466722 = compound: COc1cc2ncnc(-n3nc(-c4ccccn4)nc3N)c2cc1OC [CP466722]; conditions: top dose 16 µM; top dose inferred
Experimental: as §1

(5Z)-7-Oxozeaenol = compound: COc1cc(O)c2c(c1)/C=C/C[C@H](O)[C@H](O)C(=O)/C=C\C[C@H](C)OC2=O [(5Z)-7-Oxozeaenol]; conditions: top dose 10 µM; top dose inferred
Experimental: as §1

Cytarabine = compound: Nc1ccn([C@@H]2O[C@H](CO)[C@@H](O)[C@@H]2O)c(=O)n1 [Cytarabine]; conditions: top dose 2 µM
Experimental: as §1

QL-X-138 = compound: C=CC(=O)Nc1cc(-n2c(=O)ccc3cnc4ccc(-c5cn[nH]c5)cc4c32)ccc1C [QL-X-138]; conditions: top dose 10.24 µM; top dose inferred
Experimental: as §1

Zibotentan = compound: COc1nc(C)cnc1NS(=O)(=O)c1cccnc1-c1ccc(-c2nnco2)cc1 [Zibotentan]; conditions: top dose 20 µM; top dose inferred
Experimental: as §1

ABT-869 = compound: Cc1ccc(F)c(NC(=O)Nc2ccc(-c3cccc4[nH]nc(N)c34)cc2)c1 [ABT-869]; conditions: top dose 1.024 µM; top dose inferred
Experimental: as §1

Thapsigargin = compound: C/C=C(/C)C(=O)O[C@H]1C(C)=C2[C@H]([C@@H]1OC(=O)CCCCCCC)[C@@](C)(OC(C)=O)C[C@H](OC(=O)CCC)[C@@]1(O)[C@H]2OC(=O)[C@@]1(C)O [Thapsigargin]; conditions: top dose 0.512 µM; top dose inferred
Experimental: as §1

[1] = top dose 2.56 µM, screen: GDSC drug entry 154
[2] = top dose 10 µM, screen: GDSC drug entry 1241, top dose inferred

Row | Cell Line | AUC (CHIR-99021; [1]) | pIC50 (CHIR-99021; [1]) | AUC (CHIR-99021; [2]) | pIC50 (CHIR-99021; [2]) | AUC (ABT-888) | pIC50 (ABT-888) | AUC (MPS-1-IN-1) | pIC50 (MPS-1-IN-1) | AUC (GSK269962A) | pIC50 (GSK269962A) | AUC (KU-55933) | pIC50 (KU-55933) | AUC (CP466722) | pIC50 (CP466722) | AUC ((5Z)-7-Oxozeaenol) | pIC50 ((5Z)-7-Oxozeaenol) | AUC (Cytarabine) | pIC50 (Cytarabine) | AUC (QL-X-138) | pIC50 (QL-X-138) | AUC (Zibotentan) | pIC50 (Zibotentan) | AUC (ABT-869) | pIC50 (ABT-869) | AUC (Thapsigargin) | pIC50 (Thapsigargin)
1 | COLO-679 (melanoma, adherent) | 0.984 | < 5.59 | 0.969 | < 5.00 | 0.985 | < 5.30 | 0.97 | < 4.70 | 0.916 | < 5.30 | 0.978 | < 5.00 | 0.855 | 4.82 | 0.151 | 7.36 | 0.816 | 5.89 | 0.845 | 5.06 | 0.984 | < 4.70 | 0.983 | < 5.99 | 0.233 | 8.32
2 | COLO-680N (oesophagus, adherent) | 0.986 | < 5.59 | 0.975 | < 5.00 | 0.98 | < 5.30 | 0.986 | < 4.70 | 0.98 | < 5.30 | 0.962 | < 5.00 | 0.876 | < 4.80 | 0.796 | 5.25 | 0.924 | < 5.70 | 0.786 | 5.27 | 0.985 | < 4.70 | 0.98 | < 5.99 | 0.376 | 7.86
3 | COLO-783 (melanoma, adherent) | 0.989 | < 5.59 | 0.784 | 5.39 | 0.991 | < 5.30 | 0.961 | < 4.70 | 0.99 | < 5.30 | 0.948 | < 5.00 | 0.98 | < 4.80 | 0.935 | < 5.00 | 0.969 | < 5.70 | 0.96 | < 4.99 | 0.99 | < 4.70 | 0.987 | < 5.99 | 0.569 | 7.31
4 | CP50-MEL-B (melanoma, adherent) | 0.988 | < 5.59 | 0.958 | < 5.00 | 0.987 | < 5.30 | 0.894 | < 4.70 | 0.947 | < 5.30 | 0.982 | < 5.00 | 0.861 | 4.88 | 0.218 | 7.03 | 0.958 | < 5.70 | 0.918 | < 4.99 | 0.988 | < 4.70 | 0.987 | < 5.99 | 0.347 | 7.91
5 | CS1 (bone, adherent) | 0.962 | < 5.59 | 0.915 | < 5.00 | 0.983 | < 5.30 | 0.922 | < 4.70 | 0.892 | < 5.30 | 0.963 | < 5.00 | 0.698 | 5.41 | 0.579 | 5.98 | 0.751 | 6.14 | 0.463 | 6.30 | 0.978 | < 4.70 | 0.984 | < 5.99 | 0.365 | 7.89
6 | Ca9-22 (head and neck, adherent) | 0.984 | < 5.59 | 0.962 | < 5.00 | 0.977 | < 5.30 | 0.891 | < 4.70 | 0.925 | < 5.30 | 0.918 | < 5.00 | 0.899 | < 4.80 | 0.39 | 6.50 | 0.655 | 6.49 | 0.797 | 5.35 | 0.986 | < 4.70 | 0.984 | < 5.99 | 0.362 | 7.86
7 | CaR-1 (large intestine, adherent) | 0.976 | < 5.59 | 0.968 | < 5.00 | 0.968 | < 5.30 | 0.975 | < 4.70 | 0.822 | < 5.30 | 0.935 | < 5.00 | 0.85 | < 4.80 | 0.659 | 5.66 | 0.939 | < 5.70 | 0.864 | < 4.99 | 0.977 | < 4.70 | 0.967 | < 5.99 | 0.395 | 7.84
8 | Calu-3 (lung adenocarcinoma, adherent) | 0.983 | < 5.59 | 0.977 | < 5.00 | 0.969 | < 5.30 | 0.937 | < 4.70 | 0.906 | < 5.30 | 0.978 | < 5.00 | 0.807 | 4.96 | 0.824 | 5.09 | 0.885 | < 5.70 | 0.728 | 5.46 | 0.983 | < 4.70 | 0.983 | < 5.99 | 0.784 | 6.55
9 | Caov-4 (ovary, adherent) | 0.969 | < 5.59 | 0.908 | < 5.00 | 0.98 | < 5.30 | 0.889 | < 4.70 | 0.934 | < 5.30 | 0.98 | < 5.00 | 0.811 | 4.85 | 0.806 | 5.08 | 0.674 | 6.32 | 0.818 | 5.02 | 0.977 | < 4.70 | 0.98 | < 5.99 | 0.604 | 7.15
10 | Capan-2 (pancreas, adherent) | 0.982 | < 5.59 | 0.916 | < 5.00 | 0.985 | < 5.30 | 0.779 | 5.00 | 0.983 | < 5.30 | 0.971 | < 5.00 | 0.958 | < 4.80 | 0.802 | 5.21 | 0.885 | < 5.70 | 0.877 | < 4.99 | 0.98 | < 4.70 | 0.973 | < 5.99 | 0.112 | > 8.70

Reference: the supplement of paper PMC4967469
